In the supplement of paper PMC10126150 one finds switch fluorescence ratio data, which are given here for 120 sequences.

Sequences with one replicate were seen in a single cluster, so their values are uncertain.

In this data set the test system is ATP. Put plainly: switch fluorescence ratio, 500 uM ATP over buffer (Cy3 cluster intensity, sum of 5 cycles each) (fold (ratio)); higher = stronger signal-on switching upon ATP binding; sequences stand for … in TCGTCGGCAGCGTCAGATGTGTATAAGAGACAGTTTTTTTTTTTTTTTTTTTTTTTTT…TC. Conditions: aptamer strand: ATP DNA aptamer (quencher-CACCTGGGGGAGTATTGCGGAGGAAGG + anchor), 100 nM annealed; ATP concentration: 500 uM; one replicate. In outline:
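Values give the fluorescence ratio for each switch-domain sequence, averaged from per-cluster ratios of summed target-cycle to summed buffer-cycle Cy3 intensity. The Cy3-labelled switching-strand clusters sat on a modified Illumina MiSeq flow-cell, were annealed to 100 nM quencher-labelled ATP aptamer, and were imaged in selection buffer, then after 15 min with 500 uM ATP at 22 °C. Five cycles ran with NaOH stripping and re-annealing between them, and clusters outside 100-1000 RFU were excluded.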
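Note: ATP exposure 15 min at 22 °C before imaging.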

On to CGGCGATCCG, for which the switch fluorescence ratio is 1.01.

As for CAATGCTCTT, the switch fluorescence ratio was 1.15.

Regarding ACGCATGAAG, the switch fluorescence ratio was determined as 1.01.

As for TGTAAGTGAG, the switch fluorescence ratio came to 0.962.

In the case of CGGCATCTAT, the switch fluorescence ratio was found to be 1.01.

In the case of CCTCAAAGGA, the switch fluorescence ratio stood at 3.06.

On to TAGGTCCTCC, for which the switch fluorescence ratio amounted to 1.03.

With GGCAATGAGT, the switch fluorescence ratio turned out to be 1.03.

TTGTGGCTCC: the switch fluorescence ratio amounted to 0.996.

Take GCGCCAGAGT: the switch fluorescence ratio came to 1.02.

For the sequence CGGCTTGAGA, the switch fluorescence ratio was found to be 1.02.

As for CAACTCATTC, the switch fluorescence ratio was determined as 1.05.

For the sequence AGACAAGTTG, the switch fluorescence ratio amounted to 0.856.

As to CATTTCGATC, the switch fluorescence ratio is 0.992.

As to ACGGTTAGAA, the switch fluorescence ratio was found to be 1.06.

For the sequence TGTGTTTGTG, the switch fluorescence ratio amounted to 0.993.

For the sequence AAGGTTGGAG, the switch fluorescence ratio was found to be 0.984.

Consider GGGTCCGGAT, for which the switch fluorescence ratio turned out to be 1.02.

Regarding AGTCGATCAA, the switch fluorescence ratio was 0.95.

For the sequence TGGTTACATT, the switch fluorescence ratio was 1.01.

Take TACTAGCTTG: the switch fluorescence ratio is 1.01.

TATGCCATTG: the switch fluorescence ratio is 0.997.

As for GTTACATTTG, the switch fluorescence ratio amounted to 1.01.

For GTCCTGAACG, the switch fluorescence ratio is 1.01.

For the sequence GAGTAGTTAG, the switch fluorescence ratio worked out at 1.01.

In the case of TATTACATCC, the switch fluorescence ratio was found to be 1.03.

In the case of CCTTTAGAGA, the switch fluorescence ratio was 0.989.

As to ACGTTATATT, the switch fluorescence ratio is 1.6.

For GGATCTGCGT, the switch fluorescence ratio came out at 0.958.

For TATTGAGCC, the switch fluorescence ratio is 0.995.

In the case of AACACTGGGT, the switch fluorescence ratio came out at 1.04.

With TTACAGCTTA, the switch fluorescence ratio is 1.07.

In the case of TTGATCAATG, the switch fluorescence ratio came to 0.985.

Take TTCATGTGCC: the switch fluorescence ratio was found to be 1.04.

In the case of GGGGGCGTAG, the switch fluorescence ratio came to 1.06.

As to TCCGAGGGG, the switch fluorescence ratio worked out at 1.04.

For the sequence AGACAAGGCT, the switch fluorescence ratio worked out at 0.976.

As for GCCGCGTCTT, the switch fluorescence ratio came to 1.02.

In the case of ATTTGAGGCA, the switch fluorescence ratio worked out at 0.984.

As to CGGAGGACAG, the switch fluorescence ratio was determined as 1.03.

For GCTAGTTCGC, the switch fluorescence ratio was 1.01.

As for CGGACGCTGA, the switch fluorescence ratio stood at 1.07.

TGCGCGCCTA: the switch fluorescence ratio is 0.958.

Take GTAGCGCTAA: the switch fluorescence ratio amounted to 0.962.

As to CTGCCGGCTT, the switch fluorescence ratio amounted to 1.01.

ACGGAGTTG: the switch fluorescence ratio was determined as 1.01.

For TCAATAGTT, the switch fluorescence ratio is 1.

On to CAATCGCGCC, for which the switch fluorescence ratio was 1.15.

Turning to CAGAATCTCA, the switch fluorescence ratio was 1.

On to TCTAGGATAA, for which the switch fluorescence ratio is 0.982.

As for CTGACGTCGC, the switch fluorescence ratio was 1.13.

Consider GCCTAGGGGC, for which the switch fluorescence ratio came to 1.

On to CCTTGTGCCG, for which the switch fluorescence ratio came out at 1.07.

Take TTTAGTCGA: the switch fluorescence ratio turned out to be 0.994.

As for GCTGAGGGGC, the switch fluorescence ratio was determined as 0.945.

In the case of TTTGGTCGAC, the switch fluorescence ratio was 0.996.

As to CTATGGTGGG, the switch fluorescence ratio came out at 0.994.

CCCAAACGGT: the switch fluorescence ratio is 1.08.

Turning to AGTAAATTT, the switch fluorescence ratio stood at 1.02.

AAGAAGGTTA: the switch fluorescence ratio stood at 1.01.

For the sequence CGTCGATGGG, the switch fluorescence ratio was 0.997.

With GCTTGGGACG, the switch fluorescence ratio was determined as 0.976.

Consider TAGTTGAGGT, for which the switch fluorescence ratio stood at 1.01.

On to TGTCGTATCG, for which the switch fluorescence ratio amounted to 0.982.

For GGTCGCATG, the switch fluorescence ratio came out at 0.988.

For TAGTTTGTAT, the switch fluorescence ratio came out at 1.07.

In the case of TCGTTCTCCT, the switch fluorescence ratio worked out at 1.02.

Take GTGATATACG: the switch fluorescence ratio turned out to be 1.08.

Consider TACGGGCTCT, for which the switch fluorescence ratio was 0.941.

On to ATACACTGT, for which the switch fluorescence ratio came to 1.03.

Take GGGATTTAA: the switch fluorescence ratio came to 0.968.

In the case of GCACGTAGAC, the switch fluorescence ratio worked out at 1.12.

On to TCTGCATGG, for which the switch fluorescence ratio was 1.14.

For the sequence TATGGTACTA, the switch fluorescence ratio came out at 0.99.

Turning to GGCATTCGTC, the switch fluorescence ratio worked out at 0.969.

For GCCTTTTTG, the switch fluorescence ratio came to 0.997.

For the sequence GGTTAATAGT, the switch fluorescence ratio is 1.02.

Take GGCAATATGA: the switch fluorescence ratio came out at 2.16.

With CCGAAAGTTC, the switch fluorescence ratio turned out to be 2.02.

Take TGGGTGTAGA: the switch fluorescence ratio is 1.02.

With GGACTTGTTG, the switch fluorescence ratio came out at 1.04.

On to GGGATACCGT, for which the switch fluorescence ratio turned out to be 1.05.

For AAACCACGGC, the switch fluorescence ratio turned out to be 1.17.

As to ACTGGCTATA, the switch fluorescence ratio stood at 1.17.

As to CCTAGAACAC, the switch fluorescence ratio was 1.14.

For the sequence GCGTTGTAAC, the switch fluorescence ratio turned out to be 1.03.

TCTAGAAGTG: the switch fluorescence ratio was 0.938.

Turning to TTCGTTCTAA, the switch fluorescence ratio stood at 0.973.

Consider AGTCAACAAC, for which the switch fluorescence ratio stood at 0.973.

GATAGAATTT: the switch fluorescence ratio is 0.965.

On to TTTGAAAAGA, for which the switch fluorescence ratio was 0.986.

For the sequence CCAGAAAGGC, the switch fluorescence ratio turned out to be 1.28.

For TCACACAAG, the switch fluorescence ratio came to 1.02.

Turning to AATCAGGA, the switch fluorescence ratio came out at 0.964.

For the sequence CGATGTGAAG, the switch fluorescence ratio was 1.01.

In the case of ACGCATACCG, the switch fluorescence ratio was 1.17.

For TGGTTAATTT, the switch fluorescence ratio amounted to 1.

TGGGTAGCTA: the switch fluorescence ratio was 1.04.

As to AGTAGTGTGG, the switch fluorescence ratio was 0.989.

As for GAAAATTCAC, the switch fluorescence ratio came to 1.11.

With CGATCCAGTA, the switch fluorescence ratio came out at 1.01.

Take ACGGCTGTCT: the switch fluorescence ratio worked out at 1.11.

In the case of TACGTGTGGC, the switch fluorescence ratio came to 1.04.

For the sequence TTAACCTACG, the switch fluorescence ratio is 1.5.

Regarding CTAGGATGTC, the switch fluorescence ratio is 1.07.

For the sequence CGGGTTCTTA, the switch fluorescence ratio amounted to 1.01.

As for GGTTTCTATG, the switch fluorescence ratio is 1.03.

ATTTCGTAAC: the switch fluorescence ratio came out at 0.981.

Regarding TGGTAATAGA, the switch fluorescence ratio was 1.01.

Turning to ATAATGCA, the switch fluorescence ratio was found to be 1.02.

Take CTAAGTAACT: the switch fluorescence ratio was 1.03.

As to GCTCTAATCT, the switch fluorescence ratio came out at 0.999.

Consider TTATTAAAAA, for which the switch fluorescence ratio worked out at 0.979.

As for GAACCTGGTA, the switch fluorescence ratio stood at 1.04.

As for CCTATAATC, the switch fluorescence ratio stood at 1.02.

As to CATACGGTTC, the switch fluorescence ratio was found to be 1.14.

On to TGACGAGACA, for which the switch fluorescence ratio was 1.08.

With AACTGGTTGT, the switch fluorescence ratio is 1.06.

Take ATTAGTTGAG: the switch fluorescence ratio came to 1.01.

Consider ACGTGTTCGA, for which the switch fluorescence ratio stood at 1.03.
